Experimental data from US20240392004A1 (IMMUNOWAKE, published 2024).

Assays:
[1] = molecular target: human PD-1 on cells (HEK-PD-1 reporter cells; activated PBMC) (human); assay: cell-based or functional assay
human PD-1 = molecular target: T1, human PD-1 (human); assay: PD-L1-Fc format, method not stated
T1 construct: also called hPD-1

mouse PD-1 = molecular target: T2, mouse PD-1 (mouse); assay: PD-L1-Fc format, method not stated
T2 construct: also called mPD-1
T2 sequence (looked up): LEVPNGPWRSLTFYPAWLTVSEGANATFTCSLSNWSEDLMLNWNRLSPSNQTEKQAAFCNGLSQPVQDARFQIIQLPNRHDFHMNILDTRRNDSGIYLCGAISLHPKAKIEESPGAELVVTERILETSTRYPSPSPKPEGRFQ

B1: PD-L1(wt)-Fc/IL-12(E59A/F60A) (IL-12 at C-terminus of Fc) (Fc fusion)
chain 1: [omitted - about 200 residues][omitted - about 250 residues]
chain 2: [omitted - about 200 residues]SGDKTHTCPPCPAPEDEGGPSVFLFPPKPKDTLMISRTPEVTCVVVDVSHEDPEVKFNWYVDGVEVHNAKTKPREEQYNSTYRVVSVLTVLHQDWLNGKEYKCKVSNKALPAPIEKTISKAKGQPREPQVYVYPPSREEMTKNQVSLTCLVKGFYPSDIAVEWESNGQPENNYKTTPPVLDEDGSFALVSKLTVDKSRWQQGNVFSCSVMHEALHNHYTQKSLSLSPGKGGGGSGGGGSGGGGSIWELKKDVYVVELDWYPDAPGEMVVLTCDTPEEDGITWTLDQSSEVLGSGKTLTIQVKAAGDAGQYTCHKGGEVLSHSLLLLHKKEDGIWSTDILKDQKEPKNKTFLRCEAKNYSGRFTCWWLTTISTDLTFSVKSSRGSSDPQGVTCGAATLSAERVRGDNKEYEYSVECQEDSACPAAEESLPIEVMVDAVHKLKYENYTSSFFIRDIIKPDPPKNLQLKPLKNSRQVEVSWEYPDTWSTPHSYFSLTFCVQVQGKSKREKKDRVFTDKTSATVICRKNASISVRAQDRYYSSSWSEWASVPCSGGGGSGGGGSGGGGSGGGGSGRNLPVATPDPGMFPCLHHSQNLLRAVSNMLQKARQTLEFYPCTSEEIDHEDITKDKTSTVEACLPLELTKNESCLNSRETSFITNGSCLASRKTSFMMALCLSSIYEDLKMYQVEFKTMNAKLLMDPKRQIFLDQNMLAVIDELMQALNFNSETVPQKSSLEEPDFYKTKIKLCILLHAFRIRAVTIDRVMSYLNAS
Biological activity of IL-12, HEK-PD-1-IL-12 reporter assay, % of rIL-12 [1]: 200%

B2: PD-L1(wt)-Fc/IL-12(F60A) (IL-12 at C-terminus of Fc) (Fc fusion)
chain 1: [omitted - about 200 residues][omitted - about 250 residues]
chain 2: [omitted - about 200 residues]SGDKTHTCPPCPAPEDEGGPSVFLFPPKPKDTLMISRTPEVTCVVVDVSHEDPEVKFNWYVDGVEVHNAKTKPREEQYNSTYRVVSVLTVLHQDWLNGKEYKCKVSNKALPAPIEKTISKAKGQPREPQVYVYPPSREEMTKNQVSLTCLVKGFYPSDIAVEWESNGQPENNYKTTPPVLDEDGSFALVSKLTVDKSRWQQGNVFSCSVMHEALHNHYTQKSLSLSPGKGGGGSGGGGSGGGGSIWELKKDVYVVELDWYPDAPGEMVVLTCDTPEEDGITWTLDQSSEVLGSGKTLTIQVKEAGDAGQYTCHKGGEVLSHSLLLLHKKEDGIWSTDILKDQKEPKNKTFLRCEAKNYSGRFTCWWLTTISTDLTFSVKSSRGSSDPQGVTCGAATLSAERVRGDNKEYEYSVECQEDSACPAAEESLPIEVMVDAVHKLKYENYTSSFFIRDIIKPDPPKNLQLKPLKNSRQVEVSWEYPDTWSTPHSYFSLTFCVQVQGKSKREKKDRVFTDKTSATVICRKNASISVRAQDRYYSSSWSEWASVPCSGGGGSGGGGSGGGGSGGGGSGRNLPVATPDPGMFPCLHHSQNLLRAVSNMLQKARQTLEFYPCTSEEIDHEDITKDKTSTVEACLPLELTKNESCLNSRETSFITNGSCLASRKTSFMMALCLSSIYEDLKMYQVEFKTMNAKLLMDPKRQIFLDQNMLAVIDELMQALNFNSETVPQKSSLEEPDFYKTKIKLCILLHAFRIRAVTIDRVMSYLNAS
Biological activity of IL-12, HEK-PD-1-IL-12 reporter assay, % of rIL-12 [1]: 228%

B3: IL-12(E59A/F60A)/PD-L1(wt)-Fc (IL-12 at hinge), Table 2 (Fc fusion)
chain 1: [omitted - about 200 residues][omitted - about 250 residues]
chain 2: [omitted - about 200 residues]SGIWELKKDVYVVELDWYPDAPGEMVVLTCDTPEEDGITWTLDQSSEVLGSGKTLTIQVKAAGDAGQYTCHKGGEVLSHSLLLLHKKEDGIWSTDILKDQKEPKNKTFLRCEAKNYSGRFTCWWLTTISTDLTFSVKSSRGSSDPQGVTCGAATLSAERVRGDNKEYEYSVECQEDSACPAAEESLPIEVMVDAVHKLKYENYTSSFFIRDIIKPDPPKNLQLKPLKNSRQVEVSWEYPDTWSTPHSYFSLTFCVQVQGKSKREKKDRVFTDKTSATVICRKNASISVRAQDRYYSSSWSEWASVPCSGGGGSGGGGSGGGGSGGGGSGRNLPVATPDPGMFPCLHHSQNLLRAVSNMLQKARQTLEFYPCTSEEIDHEDITKDKTSTVEACLPLELTKNESCLNSRETSFITNGSCLASRKTSFMMALCLSSIYEDLKMYQVEFKTMNAKLLMDPKRQIFLDQNMLAVIDELMQALNFNSETVPQKSSLEEPDFYKTKIKLCILLHAFRIRAVTIDRVMSYLNASDKTHTCPPCPAPEDEGGPSVFLFPPKPKDTLMISRTPEVTCVVVDVSHEDPEVKFNWYVDGVEVHNAKTKPREEQYNSTYRVVSVLTVLHQDWLNGKEYKCKVSNKALPAPIEKTISKAKGQPREPQVYVYPPSREEMTKNQVSLTCLVKGFYPSDIAVEWESNGQPENNYKTTPPVLDEDGSFALVSKLTVDKSRWQQGNVFSCSVMHEALHNHYTQKSLSLSPGK
Biological activity of IL-12, HEK-PD-1-IL-12 reporter assay, % of rIL-12 [1]: 8.2%

B4: IL-12(F60A)/PD-L1(wt)-Fc (IL-12 at hinge) (Fc fusion)
chain 1: [omitted - about 200 residues][omitted - about 250 residues]
chain 2: [omitted - about 200 residues]SGIWELKKDVYVVELDWYPDAPGEMVVLTCDTPEEDGITWTLDQSSEVLGSGKTLTIQVKEAGDAGQYTCHKGGEVLSHSLLLLHKKEDGIWSTDILKDQKEPKNKTFLRCEAKNYSGRFTCWWLTTISTDLTFSVKSSRGSSDPQGVTCGAATLSAERVRGDNKEYEYSVECQEDSACPAAEESLPIEVMVDAVHKLKYENYTSSFFIRDIIKPDPPKNLQLKPLKNSRQVEVSWEYPDTWSTPHSYFSLTFCVQVQGKSKREKKDRVFTDKTSATVICRKNASISVRAQDRYYSSSWSEWASVPCSGGGGSGGGGSGGGGSGGGGSGRNLPVATPDPGMFPCLHHSQNLLRAVSNMLQKARQTLEFYPCTSEEIDHEDITKDKTSTVEACLPLELTKNESCLNSRETSFITNGSCLASRKTSFMMALCLSSIYEDLKMYQVEFKTMNAKLLMDPKRQIFLDQNMLAVIDELMQALNFNSETVPQKSSLEEPDFYKTKIKLCILLHAFRIRAVTIDRVMSYLNASDKTHTCPPCPAPEDEGGPSVFLFPPKPKDTLMISRTPEVTCVVVDVSHEDPEVKFNWYVDGVEVHNAKTKPREEQYNSTYRVVSVLTVLHQDWLNGKEYKCKVSNKALPAPIEKTISKAKGQPREPQVYVYPPSREEMTKNQVSLTCLVKGFYPSDIAVEWESNGQPENNYKTTPPVLDEDGSFALVSKLTVDKSRWQQGNVFSCSVMHEALHNHYTQKSLSLSPGK
Biological activity of IL-12, HEK-PD-1-IL-12 reporter assay, % of rIL-12 [1]: 221%

B5: PD-L1(wt)-Fc (heterodimer) (Fc fusion)
chain 1: not shown
chain 2: not shown
Kd (human PD-1): 7.5 µM
Kd (mouse PD-1): 5.1 µM
